Results on 88 compounds are retold here after the supplement of paper PMC4723716.

Molecules are shown by their SMILES. Over roughly 3,600 compounds, “viability index relative to DMSO control” has its median near 0.81; the lowest 2% begin near 0.13. The list shows a part of the results.
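Also: 384-well serum-free SaLSSA: MitoTracker Red CMXRos staining with saponin lysis, high-content imaging, treated-well particle count divided by plate-mean count of DMSO wells.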

The test system of the assay is Plasmodium falciparum NF54 stage V gametocytes. In words: viability index relative to DMSO control (fraction); higher = less gametocyte killing. The conditions noted are these: 1.25 µM, incubation time: 72 h.
`CCC(COC)NC(=O)c1cn(C2CCCCC2)cc(C(=O)NC(C)(C)C)c1=O` (stereo not drawn) came in with a viability index of 0.856. As to `COc1ccc(Cl)cc1NC(=S)NNC(=O)c1cccnc1`, the viability index stood at 0.875. The value for `CC(=O)N1c2ccc([N+](=O)[O-])cc2C(C)(c2ccccc2)CC1(C)C` (stereo not drawn) was 0.968. Consider `O=C(NCCc1ccccc1)C1CCC(Cn2c(=S)[nH]c3ccccc3c2=O)CC1` (stereo not drawn), for which the viability index amounted to 0.462. The value for `O=[N+]([O-])c1ccc(C=NN2CCN(Cc3ccccc3Cl)CC2)cc1` was 0.986; that for `Cc1ccc(OCC(=O)Nc2cccc(-c3nc4ncccc4o3)c2)cc1C` was 0.606; that for `Cc1cc(N2CCCC2)nc2ccc(NC(=S)NCCN3CCc4ccccc4C3)cc12` was 1.15. The value for `CCCCc1c(C)nc2c(OC)cccc2c1O` was 0.663.

Consider `CC1CCc2c(sc(NC(=O)c3ccccc3F)c2C(=O)NCc2ccccc2)C1` (stereo not drawn), for which the viability index stood at 1.42. On to `Oc1cccc(Nc2nc(NCc3ccco3)c3ccccc3n2)c1`, for which the viability index amounted to 0.595. As for `O=[N+]([O-])c1ccc(-n2ncc(-c3nc(-c4ccc(Cl)cc4)no3)c2C(F)(F)F)cc1`, the figure is 0.817; as for `CCOC(=O)C1=C(C(=O)OCC)SC(=C2C(=S)C(C)(C)N(C(=O)c3cccc(F)c3)c3cc(C)ccc32)S1`, 0.71; as for `COc1ccc(OC(C)=O)c(C=NNC(=O)C(C)Oc2ccccc2Br)c1` (stereo not drawn), 1.22.

In turn, `COc1cccc(NC(=O)c2ccc3oc(=O)c(S(=O)(=O)c4ccccc4)cc3c2)c1` returned a viability index of 1.02. The value for `OCc1nc2ccccc2n1CCOc1ccccc1` was 1.04; that for `CCN(CC)c1ccc(NC(=O)C2Cc3ccccc3CN2S(=O)(=O)c2ccc(F)cc2)cc1` (stereo not drawn) was 1.1. As for `C=CCN1CCN(C(c2ccccc2F)c2nnnn2Cc2ccco2)CC1` (stereo not drawn), the figure is 0.928.

With `CC(C)Sc1nc2c(c(=O)n1Cc1ccco1)C1(CCCCC1)Cc1ccccc1-2`, the viability index was 1.18. As to `Cc1ccc(C[n+]2cc(-c3ccc(F)cc3)n3c2CCC3)cc1`, the viability index is 1.15. As for `Cc1ccnc(NC(c2ccc(Cl)cc2Cl)c2ccc3cccnc3c2O)c1` (stereo not drawn), the figure is 0.707; as for `CCOC(=O)c1cnc2ccc(CC)cc2c1O`, 0.713; as for `COc1ccc(C(=O)ON=C(N)Cc2ccc(Cl)cc2Cl)cc1[N+](=O)[O-]`, 0.846. As for `CCN1CCN(C(=O)CS(=O)(=O)Cc2nc(-c3cccc(OC)c3)oc2C)CC1`, the figure is 0.912. In the case of `O=C(NNc1nc2ccccc2nc1Cl)Nc1ccc(Cl)cc1`, the viability index is 0.847. The value for `N#Cc1c(NC(=O)CCl)c(C(=O)c2ccccc2)n2c1CCC2` was 0.78.

The compound `COc1cccc(-c2ccc(O)c(CNC3CCN(Cc4ccccc4)CC3)c2)n1` registered a viability index of 0.721. The value for `Oc1ccc(-c2ccc3c(c2)OCO3)cc1CNCC1CC2C=CC1C21CC1` (stereo not drawn) was 0.712; that for `COC(=O)c1ccc(C(=O)Nc2ccc(-c3nc4cc(NC(=O)c5ccc(C(=O)OC)cc5)ccc4[nH]3)cc2)cc1` was 0.946. As for `Cc1cc(C)n2nc(-c3ccc(Cl)cc3)cc2n1`, the figure is 0.672; as for `N=c1c2ccccc2nnn1-c1ccc(C(F)(F)F)cc1`, 0.742; as for `COc1c2occc2c(OC)c2c(=O)cc(C(Cl)(Cl)Cl)oc12`, 0.751. The value for `CCOC(=O)c1c(CSc2ccccc2)oc2cc(CN(C)C)c(O)c(Cl)c12` was 0.293; that for `O=C(CN1CCN(C(=O)c2ccccc2)CC1)Nc1ccc(-c2nc3cc(NC(=O)CN4CCN(C(=O)c5ccccc5)CC4)ccc3o2)cc1` was 0.951. The compound `O=[N+]([O-])c1cccc(CNc2ccc(F)c(Cl)c2)c1` displayed a viability index of 1.13. The value for `C=CC[n+]1c(C=C2C=CC=CN2C)sc2ccccc21` was 0.938. The value for `COc1ccc(CC(=O)Nc2sc3c(c2C(=O)Nc2cccc4ccccc24)CCCC3)cc1` was 0.77; that for `Cc1cc(Nc2cccc(C(F)(F)F)c2)nc(NCc2ccccc2)n1` was 0.69. Consider `OC(COc1ccc(OCC(O)CN2CCN(C3c4ccccc4-c4ccccc43)CC2)cc1)CN1CCN(C2c3ccccc3-c3ccccc32)CC1` (stereo not drawn), for which the viability index is 0.754.

In turn, `C=CC[n+]1cccc2c3ccccc3ccc21` registered a viability index of 0.706. For `CCOc1ccc2nc(C)cc(Nc3cccc(O)c3)c2c1`, the viability index was found to be 0.923. As for `COc1ccc(-c2c[n+](CC(=O)O[C@H]3C[C@H](C)CC[C@@H]3C(C)C)c3n2CCCCC3)cc1`, the figure is 1.03; as for `CCn1c2ccccc2[n+]2c(C)cc(C)nc12`, 0.848; as for `C(=Nc1cnc2ccccc2c1)c1c2n(c3ccccc13)CCCN2`, 0.615. Compound `COC(=O)c1c(NC(=O)c2c(-c3ccccc3)noc2C)sc2c1CCC2` registered a viability index of 0.792. The value for `CC(=O)N1CCc2cc(Br)cc(S(=O)(=O)N3CCCC(C)C3)c21` (stereo not drawn) was 0.835.

With `CC(=O)NCCc1nc2ccccc2n1Cc1ccc(C(C)C)cc1`, the viability index turned out to be 1.02. On to `CCOc1ccccc1-n1c(SCC(=O)c2ccc(Cl)cc2)nc2[nH]ncc2c1=O`, for which the viability index is 0.905. With `c1ccc(CNc2nc(-c3ccccn3)nnc2-c2ccccc2)cc1`, the viability index was found to be 0.374.

Turning to `CCN(c1ccccc1)S(=O)(=O)c1ccc(F)c(C(=O)Nc2c(C)cccc2C)c1`, the viability index was determined as 1.34. `O=[N+]([O-])c1ccc(-n2cccc2C=NNc2ncnc3sc4c(c23)CCCC4)cc1` gave a viability index of 1.09. Compound `Ic1ccc(NCc2cn3ccccc3n2)cc1` displayed a viability index of 0.918. The compound `C=CCn1c(SCC(=O)Nc2ccccc2C)nc2sc(C)cc2c1=O` came in with a viability index of 1.02. The value for `O=[N+]([O-])c1cc(C(F)(F)F)ccc1N1CCCN(C(=S)Nc2cccc(C(F)(F)F)c2)CC1` was 0.336; that for `CCOC(=O)c1ccc(OCC2c3cc(OC)c(OC)cc3CCN2C(=O)Nc2ccc(Cl)cc2)cc1` (stereo not drawn) was 1.07; that for `CCCN1CCC(N2C[C@@H](NCc3ccc(OCc4ccccc4)cc3)C[C@H]2C(=O)NCCc2ccc3c(c2)OCO3)CC1` was 1.07. The value for `Cc1cc(Nc2ccc(Br)c(C)c2)n2nc(C)nc2n1` was 1.08; that for `CC(=O)N(C1=C(N2CCN(C)CC2)C(=O)c2ccccc2C1=O)c1cc(C)cc(C)c1` was 0.521. Consider `CCc1cccc2c(C#N)cn(CC(=O)Nc3ccc(OC)cc3)c12`, for which the viability index is 0.457. The compound `Cc1ccc(NC(=O)c2ccc(NCCCN3CC(C)CC(C)C3)c([N+](=O)[O-])c2)cc1F` (stereo not drawn) showed a viability index of 1.22. With `CCC(C)(C)n1nnnc1C(c1cc2ccc(C)cc2[nH]c1=O)N1CCN(c2ccccc2)CC1` (stereo not drawn), the viability index worked out at 0.735. The compound `COc1ccc(OC)c(-c2ccc(C(=O)N3CCN(CC=Cc4ccccc4)CC3)c(N(C)C)n2)c1` came in with a viability index of 0.577. As for `O=C(ON(C(=O)c1ccc(F)cc1)C1C2CC3CC(C2)CC1C3)c1ccc(F)cc1` (stereo not drawn), the figure is 0.855.

Turning to `COC(=O)C1=C(C)NC2=C(C(=O)c3ccccc32)C1c1ccc(OCC#N)c(OC)c1` (stereo not drawn), the viability index turned out to be 0.821. As for `CCCn1c(=N)c(C(=O)NC2CCCCC2)cc2c(=O)n3cccc(C)c3nc21`, the figure is 1.15; as for `O=C(Nc1ccc(-n2cnnn2)cc1)C1CCN(Cc2ccc(OC(F)F)cc2)CC1`, 0.913; as for `Oc1ccccc1Nc1nc(NCc2ccccc2)c2ccccc2n1`, 0.859. Compound `COc1ccc(OC)c(C(C(=O)NC2CCCC2)N(C(=O)c2snc(C(N)=O)c2N)c2ccccc2OC)c1` (stereo not drawn) displayed a viability index of 0.781. The value for `CC(C)(C)c1nn(-c2ccc(Cl)cc2)c2[nH]c(=O)c(CNCc3ccccc3)cc12` was 0.424. As for `COC(=O)c1ccc(C2C3=C(CC(c4ccco4)CC3=O)Nc3ccccc3N2C(=O)c2ccccc2)cc1` (stereo not drawn), the figure is 0.575; as for `NC(=O)NN=C1c2cc(S(=O)(=O)NCc3ccco3)ccc2-c2ccc(S(=O)(=O)NCc3ccco3)cc21`, 0.76; as for `COc1ccc(Br)cc1CNC(=O)CCCN1C(=O)COc2ccc(C)cc21`, 0.956.

Turning to `COc1ccc(C2CC(=O)C3=C(C2)NC(C)=C(C(=O)OC2CCCC2)C3c2ccc(Cl)cc2)cc1` (stereo not drawn), the viability index is 0.502.

As for `C=CCNC(=O)c1cc2c(=O)n3ccccc3nc2n(CCc2ccccc2)c1=N`, the viability index was 0.686. In the case of `Cc1ccc(CN2CCN(Cc3ccccc3)CC2)o1`, the viability index turned out to be 0.788. As for `COc1ccc(N2C(=O)c3cccnc3C2=O)cc1`, the figure is 0.743. The value for `Cn1c(SCc2cccc([N+](=O)[O-])c2)nc2c(c1=O)SCC2` was 0.818; that for `CCOC(=O)C1(CC2CCCCO2)CCN(Cc2cccc(C)n2)CC1` (stereo not drawn) was 0.442. On to `CCC(C(=O)NCc1ccc(OC)c(OC)c1)n1nc(C)c2c(C)n(-c3ccc(C)cc3)nc2c1=O` (stereo not drawn), for which the viability index worked out at 0.639. The compound `CCCC[n+]1c(C=C2C=Cc3ccccc3N2CC)sc2ccccc21` gave a viability index of 0.257. The value for `COc1ccc(/C=C(/C#N)C(=O)Nc2cccc3ccccc23)cc1` was 0.934; that for `Brc1ccc(C=NNc2nc3ccccc3[nH]2)cc1` was 1.12; that for `COCCNC(=O)c1ccc(OC2CCN(CC(c3ccccc3)c3ccccc3)CC2)c(OC)c1` was 0.512. Take `CC1CCN(C2=C(NC3CCCC3)C(=O)c3ccccc3C2=O)CC1`: the viability index was 0.394. The compound `CCOc1ccc(N2C(N)=NC(N)=NC2(C)C)cc1` showed a viability index of 0.992. In the case of `CCOC(=O)c1c(NC(=O)CSc2nnc(CNC(=O)c3ccc(C)c(C)c3)n2C2CCCCC2)sc2c1CCC2`, the viability index came to 0.784. The value for `CCOc1cccc(Nc2c3c(nc4ncnn24)CCC3)c1` was 0.844; that for `CCOC(=O)c1cnc2c(OC)cccc2c1Nc1ccc(C(C)=O)cc1` was 1.27; that for `C#CCNC(=O)c1ccc(OC2CCN(CC(c3ccccc3)c3ccccc3)CC2)c(OC)c1` was 0.536.
